Measured values reported in PubChem BioAssay AID602179 (National Center for Advancing Translational Sciences (NCATS), 2012).
About 360 (0.092%) of roughly 390,000 compounds were called active. The inconclusive results got no clear call from the source; some entries with a clear call stand among them for comparison. Calls follow the shape of the dose curve; as a rule, active = well fitted inhibition curve with a large enough effect; inconclusive = small, poorly fitted or top-dose-only effect; inactive = no such curve, though single readings can be large or run the other way. Where the call is inconclusive, the potency comes from a doubtful curve fit.

molecular target: Isocitrate dehydrogenase [NADP] cytoplasmic (Homo sapiens) (UniProt O75874); experiment: qHTS for Inhibitors of mutant isocitrate dehydrogenase 1 (IDH1): qHTS; conditions: IDH1-R132H enzyme, NADPH consumption, diaphorase/resazurin fluorescence; series mostly up to 76.6 µM; activity change, negative = inhibition: at the top concentration; also: nearly all actives have a fitted effect of over 65% in size
In short: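 IDH1-R132H (0.5 ug/mL dispensed) in pH 7.5 Tris buffer was preincubated 30 min with compound, then given a substrate mix of 0.016 mM NADPH and 2 mM alpha-KG for 80 min at room temperature; remaining NADPH was read by diaphorase/resazurin fluorescence.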
% is scaled to controls: 0 for no effect and ±100 for the full control effect; potency is read from the fitted curve at half-maximal effect; tags tell the direction and shape of the fitted curve.

**Q.** Which Potency does the source give for `N#CC(=C1C=C(Br)C(=NO)C=C1Cl)c1ccc(Cl)cc1` here?
**A.** The Potency was inconclusive: 35.5 µM [inhibitor, partial curve].

**Q.** `COc1ccccc1C(=O)Oc1ccc2c(c1)O/C(=C\c1ccncc1)C2=O` was tested. Which Potency did it give?
**A.** Its Potency is inconclusive: 46.5 µM [inhibitor, partial curve].

**Q.** For `COc1cc(NC(=O)CCS(=O)(=O)c2nc(-c3cccs3)cc(C(F)(F)F)n2)cc(OC)c1OC`, which “activity change, negative = inhibition” value is on record?
**A.** Its value is inactive: 8.49%.

**Q.** With `Cc1cccc(C)c1-n1c(C)cc(/C=N/NC(=O)CSc2ncccn2)c1C` as the compound, how does the Potency read?
**A.** The Potency was inconclusive: 52.1 µM [inhibitor, partial curve, poor fit].

**Q.** For `CC(C)(C)c1ccc(S(=O)(=O)Nc2ccc(C(=O)N3CCCC3)cc2)cc1`, which Potency is on record?
**A.** Its Potency is inconclusive: 58.5 µM [inhibitor, partial curve, poor fit].

**Q.** Which Potency does the source give for `Cc1cccc(N(C(=O)c2snc(C(N)=O)c2N)C(C(=O)NCc2ccccc2)c2ccncc2)c1` (stereo not given) here?
**A.** The Potency was inconclusive: 14.7 µM [inhibitor, single point].

**Q.** With `COC(=O)c1c(NC(=O)CC2SC(N)=NC2=O)sc2c1CCC(C)C2` (stereo not given) as the compound, how does the Potency read?
**A.** The Potency was inconclusive: 63.1 µM [inhibitor, single point].

**Q.** Which Potency does the source give for `Cc1cc(=O)[nH]c(SCC(=O)Nc2ncc(S(=O)(=O)c3ccc([N+](=O)[O-])cc3)s2)n1` here?
**A.** Its Potency is inconclusive: 5.21 µM [inhibitor, partial curve, poor fit].

**Q.** Which Potency does the source give for `Cc1ccc(NC(=O)CN2C(=O)S/C(=C\c3cc(Cl)c(OCC(=O)O)c(Cl)c3)C2=O)cc1` here?
**A.** Its Potency is active: 36.9 µM.

**Q.** Which Potency does the source give for `CC1=C(C(=O)OCc2ccccc2)C(c2ccc(Cl)cc2)NC(=O)N1CCCCCC(=O)O` (stereo not given) here?
**A.** Its Potency is inconclusive: 50.1 µM [inhibitor, single point].

**Q.** `O=C1c2[nH]nc(-c3ccccc3O)c2C(c2ccc(F)cc2)N1Cc1ccco1` (stereo not given) was tested. Which Potency did it give?
**A.** Its Potency is inconclusive: 52.1 µM [inhibitor, single point].

**Q.** With `COc1ccc(/C=C/C(=O)NC(=S)Nc2ccc(S(=O)(=O)Nc3cc(OC)ncn3)cc2)cc1` as the compound, how does the Potency read?
**A.** The Potency was inconclusive: 10.4 µM [inhibitor, full curve].

**Q.** How did the Potency turn out when `COc1ccc(-c2coc3c(C)c4oc(=O)c(CCC(=O)O)c(C)c4cc23)cc1` was run?
**A.** Its Potency is inconclusive: 44.7 µM [inhibitor, single point].

**Q.** For `CCCCn1c(-c2ccc(C)cc2)c(C)n2c3c(=O)n(C)c(=O)n(C)c3nc12`, which Potency is on record?
**A.** The Potency was inconclusive: 44.7 µM [inhibitor, partial curve].

**Q.** Which Potency does the source give for `Cc1ccc(C)c(S(=O)(=O)c2nnn3c2nc(Nc2ccc(F)c(Cl)c2)c2sccc23)c1` here?
**A.** The Potency was inconclusive: 8.91 µM [inhibitor, partial curve, poor fit].

**Q.** For `CC1=C(C(=O)N2CCOCC2)CC(CC(=O)NCCN2CCOCC2)C(=O)N1Cc1ccccc1` (stereo not given), which “activity change, negative = inhibition” value is on record?
**A.** Its value is inactive: -3.97%.

**Q.** For `O=S(=O)(Cc1ccc(Cl)cc1)c1ccccc1-c1nnc(-c2ccc(Cl)cc2)o1`, which “activity change, negative = inhibition” value is on record?
**A.** Its value is inactive: 0.438%.

**Q.** For `Fc1ccc(NCc2nnc(SCc3ccccc3)o2)cc1`, which “activity change, negative = inhibition” value is on record?
**A.** The value was inactive: -0.784%.

**Q.** How did the “activity change, negative = inhibition” value turn out when `O=C(c1cccc(S(=O)(=O)N2CCOCC2)c1)N1CCCC(C(F)(F)F)C1` (stereo not given) was run?
**A.** Its value is inactive: 9.43%.

**Q.** `CC1Cc2cc(S(=O)(=O)N3CCC(C(=O)Nc4ccccn4)CC3)ccc2N1C(=O)C1CCC1` (stereo not given) was tested. Which “activity change, negative = inhibition” value did it give?
**A.** Its value is inactive: 8.26%.

**Q.** `O=C(C[C@H]1C[C@H](C(=O)N2CCCCC2)[C@@]2(CCc3ccccc3)c3[nH]c4ccc(Cl)cc4c3CCN2C1=O)NCCCn1ccnc1` was tested. Which Potency did it give?
**A.** The Potency was inconclusive: 44.7 µM [inhibitor, partial curve, poor fit].

**Q.** How did the “activity change, negative = inhibition” value turn out when `COc1ccc(C)cc1NC(=O)CN1CCN(c2ccccc2F)CC1` was run?
**A.** Its value is inactive: 6.37%.

**Q.** Which “activity change, negative = inhibition” value does the source give for `Cc1ccc(Oc2c(C(F)(F)F)oc3c(CN4CCCCC4C)c(O)ccc3c2=O)cc1` (stereo not given) here?
**A.** Its value is inactive: 0%.

**Q.** With `CN(c1ccccc1)S(=O)(=O)c1cccc(NC(=O)c2cc(=O)c3ccccc3o2)c1` as the compound, how does the “activity change, negative = inhibition” value read?
**A.** The value was inactive: -2.48%.

**Q.** How did the Potency turn out when `Cc1ccc(Nc2nc(-c3sc(NC(=O)c4ccccc4)nc3C)cs2)cc1` was run?
**A.** The Potency was inconclusive: 50.1 µM [inhibitor, single point].

**Q.** Which Potency does the source give for `O=C(O)CCn1c(=O)n(CCC(=O)O)c(=O)n(CCC(=O)O)c1=O` here?
**A.** The Potency was inconclusive: 14.7 µM [inhibitor, partial curve, poor fit].

**Q.** With `COc1ccccc1CN(Cc1ccco1)c1cnc(S(C)(=O)=O)nc1C(=O)Nc1cc(C)ccc1C` as the compound, how does the Potency read?
**A.** Its Potency is inconclusive: 70.8 µM [inhibitor, single point].

**Q.** With `CCN1CC=C2C(C#N)=C(N)C(C#N)(C#N)[C@H](c3cccc(OC)c3OC)[C@H]2C1` as the compound, how does the Potency read?
**A.** The Potency was inconclusive: 31.6 µM [inhibitor, partial curve, poor fit].

**Q.** With `CSc1ncccc1C(=O)Nc1cccc(S(=O)(=O)N(C)c2ccccc2)c1` as the compound, how does the “activity change, negative = inhibition” value read?
**A.** Its value is inactive: -9.72%.

**Q.** How did the “activity change, negative = inhibition” value turn out when `CCOC(=O)Cn1c(=N)n(CCOc2ccc3ccccc3c2)c2ccccc21` was run?
**A.** Its value is inactive: 6.74%.

**Q.** `CC(C)(C)c1cc(C2=CSC3=NCCN23)cc(C(C)(C)C)c1O` was tested. Which Potency did it give?
**A.** Its Potency is inconclusive: 58.5 µM [inhibitor, single point].

**Q.** How did the Potency turn out when `N=c1c(S(=O)(=O)c2ccccc2)cc2c(=O)n3ccccc3nc2n1Cc1ccco1` was run?
**A.** Its Potency is inconclusive: 11.7 µM [inhibitor, full curve].

**Q.** `O=C(NNS(=O)(=O)c1ccccc1[N+](=O)[O-])c1ccc(F)cc1` was tested. Which “activity change, negative = inhibition” value did it give?
**A.** The value was inactive: 5.08%.

**Q.** `Cc1ccc(-c2nc3ccccn3c2Nc2ccc3c(c2)OCO3)cc1` was tested. Which Potency did it give?
**A.** Its Potency is inconclusive: 50.1 µM [inhibitor, partial curve, poor fit].

**Q.** `Cc1ccc(-n2c(O)c(C=Nc3ccccc3-c3n[nH]c(=S)[nH]c3=O)c3ccccc3c2=O)c(C)c1` was tested. Which Potency did it give?
**A.** The Potency was inconclusive: 36.9 µM [inhibitor, partial curve].

**Q.** `Cc1nc(-c2ccc(Cl)cc2)sc1C(=O)CBr` was tested. Which Potency did it give?
**A.** Its Potency is inconclusive: 13.1 µM [inhibitor, full curve].

**Q.** For `O=C(Sc1nnc(-c2ccccc2)o1)N1c2ccccc2Sc2ccccc21`, which “activity change, negative = inhibition” value is on record?
**A.** Its value is inactive: 6.23%.

**Q.** With `CC(=O)N1CCc2c(sc3c2c(=O)n(-c2ccccc2)c(=O)n3Cc2ccccc2Cl)C1` as the compound, how does the Potency read?
**A.** The Potency was inconclusive: 58.5 µM [inhibitor, single point].

**Q.** Which Potency does the source give for `CCC(C)NC(=O)c1cn(CC)c2ccc(S(=O)(=O)N(C)C)cc2c1=O` (stereo not given) here?
**A.** The Potency was inconclusive: 50.1 µM [inhibitor, single point].

**Q.** `Clc1ccc(C2=Nn3c(nnc3-c3n[nH]c4c3CCC4)SC2)cc1` was tested. Which Potency did it give?
**A.** The Potency was inconclusive: 52.1 µM [inhibitor, partial curve].
